Experimental data taken from the supplement of paper PMC11417369.
± gives the standard deviation of the averaged measurements. This is one part of the list.

What follows are sequences tested on PfAP2-G AP2 domain (GST-tagged) (assay: gcPBM binding intensity (ln(normalized median fluorescence intensity)); higher = stronger DNA binding).
Method in brief: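 Binding intensity values are the highest Masliner-normalised natural-log median intensity among replicate spots of either probe orientation. The binding step lasted 1 h in 1× PBS with 1% milk, 0.2 mg/ml BSA, 0.5% salmon testes DNA and 0.03% Triton X-100, using GST-tagged P. falciparum DNA-binding domains expressed in E. coli on an Agilent 4 × 180k array of primer-extended double-stranded 36-bp intergenic genomic probes plus negative controls. Alexa488 anti-GST antibody and a 488 nm scan detected bound protein.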

Row | Sequence | gcPBM binding intensity (ln)
1 | AATATATTGCACCATTGGACCTGAATAATTCTTCCA [CACACA_negctrl_site1071] | 10.4 ± 0.41
2 | GTAAGAAACGGACACACACACATATATATATATATA [CACACA_site4593] | 11.2 ± 0.83
3 | ATATATATAATATGATGTACTATTTTGATAAAAAAT [XGTACX_site3975] | 11.2 ± 0.81
4 | TAAATAATCATAGTTCTACACACCTATATTGCAAAA [CACACA_site8190] | 9.975 ± 0.092
5 | AAAAAAAAAAATTCCAGTACACACAATAATACTAAA [XGTACX_site5930] | 11.1 ± 0.69
6 | TACAAAATATGGTAATAAAGTAGTTACATGAATTGG [XGTACX_negctrl_site522] | 10.06 ± 0.042
7 | ATATTTTTTATAAAATGTACTTATTATTAGAATATA [XGTACX_site2460] | 11.2 ± 0.83
8 | ACATATAAGTTATATACACACAATAATATGTAAATA [CACACA_site6766] | 9.98 ± 0.042
9 | AATAAAAACAAACAAAAAAACAAATAAATAAATAAA [CACACA_negctrl_site483] | 9.62 ± 0.099
10 | TAGTAAGAATTACTGTGTACTAAAATATTAAAAAGT [XGTACX_site2578] | 11.6 ± 1.1
11 | AAATAGTCTTCTCTTGCATGTAACAAATATATATAT [TGCATGCA_site428] | 10 ± 0.18
12 | TTTTTTTATAAAAATGAACACACACCGATATATATA [CACACA_site9161] | 10.4 ± 0.35
13 | GTTATAGAAGCATTCACACACACACGGACATACACA [CACACA_site6801] | 11.1 ± 0.68
14 | AATATATACATATGTATGCACTTTTTAATTATTTTT | 10.09 ± 0.099
15 | TATTATAATATATTTGTGCACATAATACCTCCGCTA [GTGCAC_site9570] | 10.5 ± 0.26
16 | TTTTCTCAATTTTGGTGTACTTTTTTCTTAACACAT [XGTACX_site8918] | 11.7 ± 1
17 | TATTTAAAATATTAAATTTGTAAAGTTCGAGGGAAG [GTGCAC_negctrl_site337] | 9.68 ± 0.15
18 | TATACATATGTATGCACACATACATACCCATATAAT [CACACA_site5842] | 10 ± 0.071
19 | CTATATATAAAATATTGTACTTATTTTTATTACATC [XGTACX_site3963] | 11.5 ± 0.88
20 | AAAGGTTTATCTGATACACACATAAGTGATCAGGTT [CACACA_site6233] | 9.88 ± 0.13
21 | TAAATTAAAAAACATAAACTATTGGAAACGCATTGA [CACACA_negctrl_site935] | 10.07 ± 0.078
22 | GAAAAAAAAATATCTTGTACTTACATAACTATTGGT [XGTACX_site5326] | 11.1 ± 0.67
23 | AATGATAATCTATTATGTACACATATATTCTTATGT [XGTACX_site4148] | 11.5 ± 0.88

Row | Sequence | gcPBM binding intensity (ln)
24 | ACACAATAAACATTATGTACATATAATGTTCTGTGT [XGTACX_site3381] | 11.1 ± 0.66
25 | TAATATATAACGTGCACACACACATTTACGTATGAA [CACACA_site1832] | 10.5 ± 0.26
26 | AGCACCCACCAACACACACACACACCCACCCACCCA [CACACA_site8011] | 10.6 ± 0.2
27 | TATACATATTTCTATTGTACATAAACTAAATCTTCA [XGTACX_site28] | 10.8 ± 0.49
28 | ACAATAAATATGTGGTTGCACTTATAATATATTTAT | 10.2 ± 0.085
29 | TACAATTGTAAAGGCGCACACATATATATATATATA [CACACA_site1392] | 10.5 ± 0.35
30 | GATATTATTGCATATTTACACACGTACTAATTTAAA [CACACA_site8231] | 11 ± 0.63
31 | TTTTTATAATAAAAAAATATAACTATATTAAGCCAC [CACACA_negctrl_site555] | 10.1 ± 0.2
32 | AAGAACTCATTAATAATGTAATATTTTATAATTTAG [CACACA_negctrl_site321] | 9.505 ± 0.049
33 | ATAATAAAACTCAAAGTGCATTAGAATAATTGTAAA | 9.78 ± 0.2
34 | ATTCATAAATATATTTGTACATATTATATATAAATA [XGTACX_site1907] | 10.9 ± 0.53
35 | CATACATACAGACACACACACATATTTATATTTATA [CACACA_site6172] | 10.2 ± 0.2
36 | TCCCTTAATTTTGTGTGTACATATAATATATTTTTA [XGTACX_site2789] | 11.5 ± 0.78
37 | GTTAATTATTAAATTTGTACTCATATATATTATATA [XGTACX_site6862] | 11.3 ± 0.88
38 | TATTTTTATCAATTCACACATAAATATATTTATATG [CACACA_site5547] | 10.12 ± 0.064
39 | CACAGTGATATAAAAACACACATGAATTAAAATTTC [CACACA_site4999] | 9.855 ± 0.078
40 | AATTAATAAGAAAGGTGTACAGAAAAAAAAAAATAT [XGTACX_site2106] | 11.5 ± 0.8
41 | GGAATAGTGATATATACACACAAATACATATTTATA [CACACA_site6183] | 10 ± 0.014
42 | TTCTTAATTTAAAATTGTACTTAAGTAATACTTATG [XGTACX_site3928] | 11.2 ± 0.5
43 | GAAGTTTTTTAAAGATGTACTTTTTAAAAATAATGT [XGTACX_site1975] | 11.5 ± 0.72
44 | TTATTTACTTATTGCACACATATAAAATATATTTAT [CACACA_site3101] | 10.7 ± 0.6
45 | AAAAAAAAAAAAAATACACACATATATAAATAAATA [CACACA_site6459] | 9.91 ± 0.19
46 | AATATATAGGAAAAAGTGCAATAAATGAACAAAATA | 10.2 ± 0.071

Row | Sequence | gcPBM binding intensity (ln)
47 | TTTAATAAAATTCTAGTGCAAAAAGGAAAAAACAAA [GTGCAC_site9642] | 10.1 ± 0.33
48 | AAAAGAAATGACAAATTGGATAGATAATAGGGGGTA [GTGCAC_negctrl_site262] | 10.5 ± 0.21
49 | AATTTTGATATATATTGTACGCATTTTTAAATGCCA [XGTACX_site7694] | 11.5 ± 1.1
50 | TATATATATATATATGTGCACTGAAAGAATTATACA [GTGCAC_site9586] | 10.6 ± 0.62
51 | ATATATATAGAAATATGTACGAAAAAAATATCACAT [XGTACX_site746] | 10.9 ± 0.59
52 | TATTTATTTTATATATGTACATAATATATTCTTATA [XGTACX_site1619] | 11.2 ± 0.69
53 | GCTCAATTTTTGGGTACACACAAATGTATAAGAATA [CACACA_site7178] | 11.5 ± 0.91
54 | TTTTTCTAATTATGCACACATATCAAAATATTCAAT [CACACA_site2749] | 10.2 ± 0.25
55 | TGTTCTATGGTTTGTAGTACTTTAATAAATATAAAT [XGTACX_site7823] | 11.4 ± 0.92
56 | AAAATCAAAAAAACAAGTACAAATGTGGACTTTTTT [XGTACX_site5363] | 11.5 ± 0.86
57 | AATAAGCTCACGTGTCGTACATTTTTTAAAACAACC [XGTACX_site4707] | 11.3 ± 0.74
58 | TCAAAAAAAAAAAAAAAAAAAAAAAAAAAAAAAAAA [CACACA_negctrl_site1753] | 9.71 ± 0.071
59 | ATATAAATGAATATATGTACATATATATATATATAT [XGTACX_site6361] | 11.2 ± 0.52
60 | TTTTTTTTTTTTTGGTGTACCATAGGTAAAATGATT [XGTACX_site8020] | 11.1 ± 0.84
61 | ATTTATGGAAAAAGAACACACAATCAAACAAAAATA [CACACA_site3707] | 10.3 ± 0.27
62 | ATGCTATAGGATCTTACACACATTTTTGTAAAAAAA [CACACA_site1868] | 10.02 ± 0.071
63 | TGACCTGTTCAGGTAACACACATATAAACCCATACA [CACACA_site31] | 10.4 ± 0.25
64 | CATTTACCCTTATTAACACACAAAATATAATACGCT [CACACA_site2565] | 10.2 ± 0.23
65 | CAAAATATAGATGACACACACAAAAAAAGTATATTA [CACACA_site6848] | 10.14 ± 0.042
66 | AGATAAAAAAAGTACACACACACATATATATATATA [CACACA_site3072] | 11.6 ± 0.93
67 | AAGCTTCCTTAATATACACACATATCTGAGTATATT [CACACA_site5939] | 9.965 ± 0.007
68 | AAAAAAAAAAAAAAAAAAAAATTTCAATTATATTGA [GTGCAC_negctrl_site642] | 10.8 ± 0.52
69 | TTTTTTTTTGCCTACTGTACTATTTTTGAGCTCACC [XGTACX_site7967] | 11.5 ± 0.95

Row | Sequence | gcPBM binding intensity (ln)
70 | ATAGAAAGTGACAATTGTACATACATATTATATATA [XGTACX_site4390] | 10.9 ± 0.43
71 | TTCTTGGAATACAAGTGTACTTTATTATTATTATTA [XGTACX_site5997] | 11.3 ± 0.88
72 | AAAATTATAATATATACACACATATATATATTAAAT [CACACA_site473] | 9.91 ± 0.18
73 | TATTGTTTTTTTGATTTTTTTTTTTTTTTTAATGAA [CACACA_negctrl_site824] | 9.465 ± 0.064
74 | ACCAAATCATATATAGCACACAAATTCTTTATTATT [CACACA_site8911] | 9.94 ± 0.13
75 | AATATTTTCTGTAATACTTCTTTTCAATTTATTTCG [CACACA_negctrl_site1390] | 10.3 ± 0.11
76 | AATATCAATGATGTTACATGCAAGAGAATCCACAAA [TGCATGCA_site678] | 10.12 ± 0.021
77 | TATATTAAACATATATGTACATATTTTTTCTGAACA [XGTACX_site5390] | 11.3 ± 0.78
78 | ACGTAAAATTATTATTGTACATGTAAATAATTTGGA [XGTACX_site8154] | 11.1 ± 0.32
79 | ATTTACATTCACTTATGTACTTATATAATTTTATTT [XGTACX_site8150] | 11.3 ± 0.8
80 | TAACTCCACAAATAATGTACATATATCACTATATTT [XGTACX_site4911] | 10.8 ± 0.46
81 | AATGTATAATTATAATGTACAAATAATATATAATAT [XGTACX_site5407] | 10.9 ± 0.4
82 | TATATAATATATATTTTATATTTGTAATAATTTTTT [GTGCAC_negctrl_site497] | 9.52 ± 0.057
83 | TACATATGAAAATACACACATACATACATATATATA [CACACA_site1673] | 9.94 ± 0.11
84 | TACCCACGTATATATATACACACTAATATACACCCA [CACACA_site9381] | 10.2 ± 0.2
85 | TATACGAAATTGTGCACACATATATTTATGTATGTA [CACACA_site1509] | 10.4 ± 0.29
86 | AATACATAATAACATGTACACACATTCTTCTATAAA [CACACA_site9344] | 11.3 ± 0.86
87 | AAAAAAAACGAACACACACACATACAAAATCTATAT [CACACA_site6795] | 10.03 ± 0.014
88 | TTAAAAGAATATAATGCACACATTATTTTATTTTAT [CACACA_site3772] | 9.73 ± 0.13
89 | GTATGAGTCGTAGAGTGTACTCTGGAGAAAACTACA [XGTACX_site4942] | 11.4 ± 0.78
